# Data: publication PMC9911399, “Two distinct binding modes provide the RNA-binding protein RbFox with extraordinary sequence specificity”
# Positions count from the first letter of the chain named. The list shows a part of the results.
# T1: RBFOX1 RRM (Homo sapiens, UniProt Q9NWB1 109-208)
# T1 sequence: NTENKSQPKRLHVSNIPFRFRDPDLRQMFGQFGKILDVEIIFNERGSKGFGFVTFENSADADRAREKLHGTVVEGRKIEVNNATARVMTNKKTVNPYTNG
# B1: AGCUAAU (DNA:RNA)
# RNA: GGGAGACCGGAAUUCAGAUUGUCCAGCUAAUUUAAAUCCCGUCGUAGCCACCA
# DNA 1: CAATCTGAATTCCGGTCTCCC
# DNA 2: TGGTGGCTACGACGGGATT
# B2: UUGUUCU (DNA:RNA)
# RNA: B1 RNA with A25U, G26U, C27G, A29U, A30C
# DNA 1: CAATCTGAATTCCGGTCTCCC
# DNA 2: TGGTGGCTACGACGGGATT
# B3: UCUGUCC (DNA:RNA)
# RNA: GGGAGACCGGAAUUCAGAUUGUCCUCUGUCCUUAAAUCCCGUCGUAGCCACCA
# DNA 1: CAATCTGAATTCCGGTCTCCC
# DNA 2: TGGTGGCTACGACGGGATT
# B4: UGGCAGC (DNA:RNA)
# RNA: B1 RNA with A25U, C27G, U28C, A30G, U31C
# DNA 1: CAATCTGAATTCCGGTCTCCC
# DNA 2: TGGTGGCTACGACGGGATT
# B5: GAAAUUA (DNA:RNA)
# RNA: B3 RNA with U25G, C26A, U27A, G28A, C30U, C31A
# DNA 1: CAATCTGAATTCCGGTCTCCC
# DNA 2: TGGTGGCTACGACGGGATT
# B6: CGCCUGA (DNA:RNA)
# RNA: B1 RNA with A25C, U28C, A29U, A30G, U31A
# DNA 1: CAATCTGAATTCCGGTCTCCC
# DNA 2: TGGTGGCTACGACGGGATT
# B7: CUCUAUG (DNA:RNA)
# RNA: B1 RNA with A25C, G26U, A30U, U31G
# DNA 1: CAATCTGAATTCCGGTCTCCC
# DNA 2: TGGTGGCTACGACGGGATT
# B8: CGAGACA (DNA:RNA)
# RNA: B1 RNA with A25C, C27A, U28G, A30C, U31A
# DNA 1: CAATCTGAATTCCGGTCTCCC
# DNA 2: TGGTGGCTACGACGGGATT
# B9: UCUAAUU (DNA:RNA)
# RNA: B3 RNA with G28A, U29A, C30U, C31U
# DNA 1: CAATCTGAATTCCGGTCTCCC
# DNA 2: TGGTGGCTACGACGGGATT
# B10: AGUAUAC (DNA:RNA)
# RNA: B1 RNA with C27U, U28A, A29U, U31C
# DNA 1: CAATCTGAATTCCGGTCTCCC
# DNA 2: TGGTGGCTACGACGGGATT
# B11: UGGGGAU (DNA:RNA)
# RNA: B1 RNA with A25U, C27G, U28G, A29G
# DNA 1: CAATCTGAATTCCGGTCTCCC
# DNA 2: TGGTGGCTACGACGGGATT
# B12: GCGGCCA (DNA:RNA)
# RNA: B3 RNA with U25G, U27G, U29C, C31A
# DNA 1: CAATCTGAATTCCGGTCTCCC
# DNA 2: TGGTGGCTACGACGGGATT
# B13: AACGCGU (DNA:RNA)
# RNA: B1 RNA with G26A, U28G, A29C, A30G
# DNA 1: CAATCTGAATTCCGGTCTCCC
# DNA 2: TGGTGGCTACGACGGGATT
# B14: GACCAAC (DNA:RNA)
# RNA: B1 RNA with A25G, G26A, U28C, U31C
# DNA 1: CAATCTGAATTCCGGTCTCCC
# DNA 2: TGGTGGCTACGACGGGATT
# B15: CCUCAUA (DNA:RNA)
# RNA: B3 RNA with U25C, G28C, U29A, C30U, C31A
# DNA 1: CAATCTGAATTCCGGTCTCCC
# DNA 2: TGGTGGCTACGACGGGATT
# B16: ACUCCAA (DNA:RNA)
# RNA: B1 RNA with G26C, C27U, U28C, A29C, U31A
# DNA 1: CAATCTGAATTCCGGTCTCCC
# DNA 2: TGGTGGCTACGACGGGATT
# B17: GCAACGU (DNA:RNA)
# RNA: B1 RNA with A25G, G26C, C27A, U28A, A29C, A30G
# DNA 1: CAATCTGAATTCCGGTCTCCC
# DNA 2: TGGTGGCTACGACGGGATT
# B18: UUACAUA (DNA:RNA)
# RNA: B1 RNA with A25U, G26U, C27A, U28C, A30U, U31A
# DNA 1: CAATCTGAATTCCGGTCTCCC
# DNA 2: TGGTGGCTACGACGGGATT
# B19: UGCUGGU (DNA:RNA)
# RNA: B1 RNA with A25U, A29G, A30G
# DNA 1: CAATCTGAATTCCGGTCTCCC
# DNA 2: TGGTGGCTACGACGGGATT
# B20: CCCUCGG (DNA:RNA)
# RNA: B1 RNA with A25C, G26C, A29C, A30G, U31G
# DNA 1: CAATCTGAATTCCGGTCTCCC
# DNA 2: TGGTGGCTACGACGGGATT
# B21: AUCCGGA (DNA:RNA)
# RNA: B1 RNA with G26U, U28C, A29G, A30G, U31A
# DNA 1: CAATCTGAATTCCGGTCTCCC
# DNA 2: TGGTGGCTACGACGGGATT
# B22: UUUGACG (DNA:RNA)
# RNA: B3 RNA with C26U, U29A, C31G
# DNA 1: CAATCTGAATTCCGGTCTCCC
# DNA 2: TGGTGGCTACGACGGGATT
# B23: AGCACGU (DNA:RNA)
# RNA: B1 RNA with U28A, A29C, A30G
# DNA 1: CAATCTGAATTCCGGTCTCCC
# DNA 2: TGGTGGCTACGACGGGATT
# B24: UCGUUAU (DNA:RNA)
# RNA: B1 RNA with A25U, G26C, C27G, A29U
# DNA 1: CAATCTGAATTCCGGTCTCCC
# DNA 2: TGGTGGCTACGACGGGATT
# B25: UCACUCG (DNA:RNA)
# RNA: B3 RNA with U27A, G28C, C31G
# DNA 1: CAATCTGAATTCCGGTCTCCC
# DNA 2: TGGTGGCTACGACGGGATT
# B26: CACAUGA (DNA:RNA)
# RNA: B1 RNA with A25C, G26A, U28A, A29U, A30G, U31A
# DNA 1: CAATCTGAATTCCGGTCTCCC
# DNA 2: TGGTGGCTACGACGGGATT
# B27: CCUCCAU (DNA:RNA)
# RNA: B1 RNA with A25C, G26C, C27U, U28C, A29C
# DNA 1: CAATCTGAATTCCGGTCTCCC
# DNA 2: TGGTGGCTACGACGGGATT
# B28: CUCCGCA (DNA:RNA)
# RNA: B1 RNA with A25C, G26U, U28C, A29G, A30C, U31A
# DNA 1: CAATCTGAATTCCGGTCTCCC
# DNA 2: TGGTGGCTACGACGGGATT
# B29: UGGAAUG (DNA:RNA)
# RNA: B1 RNA with A25U, C27G, U28A, A30U, U31G
# DNA 1: CAATCTGAATTCCGGTCTCCC
# DNA 2: TGGTGGCTACGACGGGATT
# B30: UGUGUGA (DNA:RNA)
# RNA: B3 RNA with C26G, C30G, C31A
# DNA 1: CAATCTGAATTCCGGTCTCCC
# DNA 2: TGGTGGCTACGACGGGATT
# B31: AUGCUAC (DNA:RNA)
# RNA: B1 RNA with G26U, C27G, U28C, A29U, U31C
# DNA 1: CAATCTGAATTCCGGTCTCCC
# DNA 2: TGGTGGCTACGACGGGATT
# Molecular target: T1, RBFOX1 RRM
# Test: EMSA; HiTS-Eq, 1 nM pool, 10 min; buffer printed only for the single-RNA assays: 10 mM Tris pH 7.5, 150 mM NaCl, 3.4 mM EDTA, 0.001% NP-40, 30 C
# Details: tags: His6 N-terminal (pET28a); label: 5' 32P
# Summary of the method: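 Relative association constants, normalised to the cognate motif, were derived by comparing read counts of each RNA species with those of the control reaction. The RNA sequenced was the free fraction, separated by 8% native PAGE after a 10 min equilibration in 50 µL of 1 nM 5′-radiolabelled RNA (7 randomized nucleotides) with increasing concentrations of purified wild-type or mutant RbFox RRM.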
row,Binder,binding signal
1,B1,0.0041 KA relative to UGCAUGU
2,B2,0.0231 KA relative to UGCAUGU
3,B3,0.00944 KA relative to UGCAUGU
4,B4,0.0144 KA relative to UGCAUGU
5,B5,0.004 KA relative to UGCAUGU
6,B6,0.0212 KA relative to UGCAUGU
7,B7,0.013 KA relative to UGCAUGU
8,B8,0.0066 KA relative to UGCAUGU
9,B9,0.00397 KA relative to UGCAUGU
10,B10,0.0035 KA relative to UGCAUGU
11,B11,0.0193 KA relative to UGCAUGU
12,B12,0.0176 KA relative to UGCAUGU
13,B13,0.00909 KA relative to UGCAUGU
14,B14,0.00558 KA relative to UGCAUGU
15,B15,0.00439 KA relative to UGCAUGU
16,B16,0.000959 KA relative to UGCAUGU

row,Binder,binding signal
1,B17,0.00826 KA relative to UGCAUGU
2,B18,0.00214 KA relative to UGCAUGU
3,B19,0.028 KA relative to UGCAUGU
4,B20,0.00996 KA relative to UGCAUGU
5,B21,0.0045 KA relative to UGCAUGU
6,B22,0.0112 KA relative to UGCAUGU
7,B23,0.0367 KA relative to UGCAUGU
8,B24,0.011 KA relative to UGCAUGU
9,B25,0.00518 KA relative to UGCAUGU
10,B26,0.00324 KA relative to UGCAUGU
11,B27,0.00284 KA relative to UGCAUGU
12,B28,0.00764 KA relative to UGCAUGU
13,B29,0.0953 KA relative to UGCAUGU
14,B30,0.0276 KA relative to UGCAUGU
15,B31,0.0089 KA relative to UGCAUGU
